Out of some 310,000 compounds screened, about 2,200 (0.71%) showed an effect of 50% or more. Effects have a minus sign here. This is one part of the list.

Chain of human ether-à-go-go-related gene (hERG) potassium channel (Q12809 whole entry, looked up): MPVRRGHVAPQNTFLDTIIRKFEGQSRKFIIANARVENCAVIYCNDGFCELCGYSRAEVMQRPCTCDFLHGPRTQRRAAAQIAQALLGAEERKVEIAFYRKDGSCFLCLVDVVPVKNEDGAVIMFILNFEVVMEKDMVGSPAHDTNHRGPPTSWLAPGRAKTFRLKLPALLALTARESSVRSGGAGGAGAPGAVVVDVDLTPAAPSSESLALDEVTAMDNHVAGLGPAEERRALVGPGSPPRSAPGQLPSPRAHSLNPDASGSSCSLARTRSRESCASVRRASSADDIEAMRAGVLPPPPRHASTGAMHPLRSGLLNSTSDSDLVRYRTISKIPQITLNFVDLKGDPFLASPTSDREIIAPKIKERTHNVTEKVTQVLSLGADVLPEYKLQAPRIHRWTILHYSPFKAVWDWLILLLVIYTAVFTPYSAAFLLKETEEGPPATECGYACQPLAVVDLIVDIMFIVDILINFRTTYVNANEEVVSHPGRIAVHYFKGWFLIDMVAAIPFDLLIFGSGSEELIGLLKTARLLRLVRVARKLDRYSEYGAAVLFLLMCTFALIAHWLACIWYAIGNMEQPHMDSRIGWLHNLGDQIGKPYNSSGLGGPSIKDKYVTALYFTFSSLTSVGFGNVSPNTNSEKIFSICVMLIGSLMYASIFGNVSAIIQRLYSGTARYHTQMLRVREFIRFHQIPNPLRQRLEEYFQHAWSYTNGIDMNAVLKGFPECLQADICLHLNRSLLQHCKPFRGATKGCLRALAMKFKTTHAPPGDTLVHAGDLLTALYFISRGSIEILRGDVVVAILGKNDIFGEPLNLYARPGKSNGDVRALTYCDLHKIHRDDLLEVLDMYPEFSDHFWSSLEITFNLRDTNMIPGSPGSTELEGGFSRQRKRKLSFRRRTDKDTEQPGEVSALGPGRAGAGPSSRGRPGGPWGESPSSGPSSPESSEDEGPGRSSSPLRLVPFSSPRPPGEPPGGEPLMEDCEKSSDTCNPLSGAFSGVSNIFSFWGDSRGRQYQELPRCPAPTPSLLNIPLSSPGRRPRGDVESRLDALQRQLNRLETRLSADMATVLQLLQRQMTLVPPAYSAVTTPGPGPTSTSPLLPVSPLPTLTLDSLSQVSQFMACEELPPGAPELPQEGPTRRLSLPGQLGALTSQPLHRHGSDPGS

The assay addresses human ether-à-go-go-related gene (hERG) potassium channel (human, UniProt Q12809). As to the kind of experiment: primary screen, population patch clamp on CHO cells stably expressing hERG.
Regarding `COc1ccc(/C=N\Nc2ccc([N+](=O)[O-])cc2)c(C(=O)O)c1OC`, the “hERG current change (%, negative = inhibition) at 1uM” value came to 10.5%.

Turning to `COc1ccc(C(CNC(=O)Cc2ccc3ccccc3c2)N(C)C)cc1` (stereo not shown), the “hERG current change (%, negative = inhibition) at 1uM” value came out at 9.52%.

As to `COc1ccc(OCCCC(=O)Nc2nnc(C3CCCO3)s2)cc1` (stereo not shown), the “hERG current change (%, negative = inhibition) at 1uM” value worked out at 9.7%.

Take `O=C(NCc1cccnc1)c1ccc2c(c1)OCO2`: the “hERG current change (%, negative = inhibition) at 1uM” value is on record as 7.74%.

On to `COc1ccc(NC(=O)c2ccc(-n3cccn3)nc2)c(OC)c1`, for which the “hERG current change (%, negative = inhibition) at 1uM” value is on record as 17.4%.

Turning to `Cc1c(Cl)cccc1NC(=S)NCCc1ccc(S(N)(=O)=O)cc1`, the “hERG current change (%, negative = inhibition) at 1uM” value turned out to be 12.3%.

In the case of `COc1cc(OC)cc(C(=O)Nc2nnc(SCC(=O)NCc3ccco3)s2)c1`, the “hERG current change (%, negative = inhibition) at 1uM” value was determined as 9%.

For `N#C/C(=C\c1c[nH]c2ccccc12)C(=O)NCC1CCCO1` (stereo not shown), the “hERG current change (%, negative = inhibition) at 1uM” value turned out to be 15.5%.

`Cn1c(CNC(=O)c2ccccc2)nnc1SCC(=O)N1CCN(c2ccccc2)CC1`: the “hERG current change (%, negative = inhibition) at 1uM” value was found to be 3.9%.

Consider `Cc1ccc(N2CC(C(=O)OCc3ccccc3F)CC2=O)cc1` (stereo not shown), for which the “hERG current change (%, negative = inhibition) at 1uM” value is 0.883%.

`COC1CCCN(C(=O)c2ccc(OC3CCN(CCc4ccccc4)CC3)cc2)C1` (stereo not shown): the “hERG current change (%, negative = inhibition) at 1uM” value is reported as 2.5%.

As for `COc1ccc(/C=C(/NC(=O)c2ccccc2)C(=O)N/N=C/c2ccncc2)c(OC)c1`, the “hERG current change (%, negative = inhibition) at 1uM” value is listed as 15.5%.

Consider `O=C1c2ccccc2C(=O)N1CCSc1ccccc1`, for which the “hERG current change (%, negative = inhibition) at 1uM” value came to 7.13%.

In the case of `COc1ccc(OCCSc2ncc(CO)n2C)cc1`, the “hERG current change (%, negative = inhibition) at 1uM” value worked out at 13.8%.

As for `O=c1[nH]c(NC2CCCCC2)c([N+](=O)[O-])c(=O)[nH]1`, the “hERG current change (%, negative = inhibition) at 1uM” value is listed as 15.9%.

For `Cc1cc(C)n(CCC(=O)N2CCCC(Nc3ccc(F)cc3)C2)n1` (stereo not shown), the “hERG current change (%, negative = inhibition) at 1uM” value worked out at 14%.

In the case of `Cc1c(N=Cc2c(O)n(Cc3ccco3)c(=O)[nH]c2=O)c(=O)n(-c2ccccc2)n1C`, the “hERG current change (%, negative = inhibition) at 1uM” value was found to be 7.36%.

In the case of `CC1CN(c2ccc([N+](=O)[O-])cn2)CC(C)O1` (stereo not shown), the “hERG current change (%, negative = inhibition) at 1uM” value stood at 0.324%.

`Cc1noc(/C=C/N(C)C)c1S(=O)(=O)N(C)Cc1ccc(F)cc1`: the “hERG current change (%, negative = inhibition) at 1uM” value is given as 5.4%.

Regarding `Cc1ccc(C)c(S(=O)(=O)N2CCCOC2CNC(=O)C(=O)NCCc2ccccc2)c1` (stereo not shown), the “hERG current change (%, negative = inhibition) at 1uM” value was determined as 8.93%.

For `Cc1ccc(OCC(=O)N2N=C(C(F)(F)F)CC2(O)C(C)(C)C)cc1C` (stereo not shown), the “hERG current change (%, negative = inhibition) at 1uM” value was -4.8%.

As to `CCCCc1[nH]nc2c1C1(C(=O)N(CC)c3ccccc31)C(C#N)=C(N)O2` (stereo not shown), the “hERG current change (%, negative = inhibition) at 1uM” value is 1.84%.

As to `CCc1ccc(N(C(=O)c2snc(C(N)=O)c2N)C(C(=O)NCC2CCCO2)c2cccs2)cc1` (stereo not shown), the “hERG current change (%, negative = inhibition) at 1uM” value is 7.84%.

In the case of `CCN1C(=O)C(C(=O)Nc2ccc(OC)cc2)C2CC1(C)Oc1ccccc12` (stereo not shown), the “hERG current change (%, negative = inhibition) at 1uM” value is 4.5%.

On to `COc1ccc(N(CC(=O)Nc2ccccc2C(=O)NCCc2ccccc2)S(C)(=O)=O)cc1OC`, for which the “hERG current change (%, negative = inhibition) at 1uM” value was -8.91%.

`CCOC(=O)Cc1csc(NC(=O)CSc2nnc(C)n2C)n1`: the “hERG current change (%, negative = inhibition) at 1uM” value is reported as 12.6%.

As to `CCc1ccc(OCC(O)CN2CCN(CCO)CC2)cc1.Cl` (stereo not shown), the “hERG current change (%, negative = inhibition) at 1uM” value was determined as 11.7%.

Regarding `CCN(CC(=O)Nc1ccccc1OC)C(=O)CN1C(=O)NC(C)(c2ccccc2)C1=O` (stereo not shown), the “hERG current change (%, negative = inhibition) at 1uM” value stood at 5.56%.

As to `COC(=O)c1ccccc1NC(=O)C1CC(=O)N(c2ccc(C)c(C)c2)C1` (stereo not shown), the “hERG current change (%, negative = inhibition) at 1uM” value amounted to 4.82%.

With `COc1ccccc1NC(NC(=O)c1ccccn1)C(Cl)(Cl)Cl` (stereo not shown), the “hERG current change (%, negative = inhibition) at 1uM” value is 1.41%.

For the molecule `CN1CCN(Cc2nc3c(c(=O)[nH]c(=O)n3C)n2CCc2ccccc2)CC1`, the “hERG current change (%, negative = inhibition) at 1uM” value is recorded as -2.06%.

On to `COc1ccc(-n2nc(C(=O)NCC(=O)N3CCN(Cc4ccc5c(c4)OCO5)CC3)c3ccccc3c2=O)cc1OC`, for which the “hERG current change (%, negative = inhibition) at 1uM” value is 5.71%.

With `Cc1sc(NC(=S)NC(=O)C2CCCCC2)c(C(N)=O)c1C`, the “hERG current change (%, negative = inhibition) at 1uM” value was 17.2%.

On to `O=C(N/N=C/c1cccnc1)c1cccc(NC(=O)c2cccc(Br)c2)c1`, for which the “hERG current change (%, negative = inhibition) at 1uM” value turned out to be 16.2%.

As to `Cc1ccc(C)c(NC(NC(=O)c2cccnc2)C(Cl)(Cl)Cl)c1` (stereo not shown), the “hERG current change (%, negative = inhibition) at 1uM” value is reported as 11.6%.

For the molecule `O=C(c1ccco1)N1CCN(C(=O)c2ccc(CS(=O)c3ccc(Cl)cc3)o2)CC1` (stereo not shown), the “hERG current change (%, negative = inhibition) at 1uM” value was 0.733%.

Consider `COc1ccc(S(=O)(=O)NC(CC(=O)N2CCC3(CC2)OCCO3)C(C)C)cc1` (stereo not shown), for which the “hERG current change (%, negative = inhibition) at 1uM” value was found to be 12.7%.

`COc1cccc(-n2c(SCC(=O)Nc3nccs3)nnc2-c2ccoc2C)c1`: the “hERG current change (%, negative = inhibition) at 1uM” value is recorded as -84.6%.

Turning to `Cc1ccc2cc(CN(CCCO)S(=O)(=O)c3cccc4nsnc34)c(=O)[nH]c2c1C`, the “hERG current change (%, negative = inhibition) at 1uM” value is reported as -4.09%.

For the molecule `Cc1onc(COc2ccccc2O)c1Br`, the “hERG current change (%, negative = inhibition) at 1uM” value is given as 20%.

Consider `COc1ccc(N(C)S(=O)(=O)c2cccc(C(=O)Nc3nc(C)cs3)c2)cc1`, for which the “hERG current change (%, negative = inhibition) at 1uM” value is reported as -0.264%.

On to `O=C(CCC(=O)OCC(=O)c1ccccc1)Nc1cccc2cccnc12`, for which the “hERG current change (%, negative = inhibition) at 1uM” value amounted to 3.6%.

Take `CC1CC(C)(C)NC(=S)N1CCC(=O)N1CCN(Cc2ccccc2)CC1` (stereo not shown): the “hERG current change (%, negative = inhibition) at 1uM” value came to 7.38%.

For `Nc1nc(=S)c2ncn(C3OC(CO)C(O)C3O)c2[nH]1` (stereo not shown), the “hERG current change (%, negative = inhibition) at 1uM” value came to 16.3%.

For the molecule `COC(=O)N(c1ccc(OC)cc1)P1(=S)OCCC(C)O1` (stereo not shown), the “hERG current change (%, negative = inhibition) at 1uM” value worked out at 3.42%.

Regarding `CCOC(=O)c1c(NC(=O)CSc2nnc(-c3c[nH]c4ccccc34)n2CC)sc2c1CCCC2`, the “hERG current change (%, negative = inhibition) at 1uM” value came out at 23.7%.

With `O=C1C(=O)N(CCN2CCOCC2)C(c2ccc(Cl)c(Cl)c2)/C1=C(/O)c1ccc2c(c1)OCO2` (stereo not shown), the “hERG current change (%, negative = inhibition) at 1uM” value is recorded as 11.3%.

`CCCCN1C(=O)c2ccc(C(=O)Nc3cccnc3)cc2C1=O`: the “hERG current change (%, negative = inhibition) at 1uM” value was 11.7%.

In the case of `COc1ccc2c(c1OC)C(=O)N1C2SC[C@H]1C(=O)NC1CC1` (stereo partly shown), the “hERG current change (%, negative = inhibition) at 1uM” value worked out at 7.72%.

Regarding `CC(C)CNS(=O)(=O)c1cc(C(=O)O)c(Cl)cc1Cl`, the “hERG current change (%, negative = inhibition) at 1uM” value is on record as 14.7%.

Regarding `COc1ccc(NC(=O)c2ccc(COc3ccc(C)cc3)o2)cc1`, the “hERG current change (%, negative = inhibition) at 1uM” value amounted to 13.4%.

For the molecule `COc1cccc2cc(-c3cc(=O)oc4cc(C)c(O)cc34)oc12`, the “hERG current change (%, negative = inhibition) at 1uM” value stood at 11.5%.

As to `CC12CNCC(C)(CN(C(c3ccccc3)c3ccccc3)C1)C2`, the “hERG current change (%, negative = inhibition) at 1uM” value stood at 3.71%.

Regarding `CCCCN1C(=O)NC(NC(=O)C2CC2)(C(F)(F)F)C1=O` (stereo not shown), the “hERG current change (%, negative = inhibition) at 1uM” value stood at 7.98%.

On to `CCOc1ccc(N2C(=O)CN(c3cccc4ccccc34)C2=S)cc1`, for which the “hERG current change (%, negative = inhibition) at 1uM” value is on record as -5.5%.
